# According to ChEMBL document CHEMBL4888484, “Replenishing the malaria drug discovery pipeline: Screening and hit evaluation of the MMV Hit Generation Library 1 (HGL1) against asexual blood stage Plasmodium falciparum ,using a nano luciferase reporter read-out” (2022):
# Hit rate of the full screen: of about 150,000 compounds, about 540 (0.36%) showed an effect of 50% or more. Some of the results follow.
# Test system: Plasmodium falciparum
# Assay: Primary screen in NF54 nanoGlo assay, in single point, at 2uM, 72h; a lower Z score goes with more inhibition
# Assay type: functional, Erythrocyte
# Details: timepoint 72 hour
SMILES,% Inhibition,Z score
COc1ccccc1-c1nnc([C@H]2CCN(Cc3cccc(C#N)c3)C2)o1,-3%,0.41
Cc1ncsc1C(=O)N1CCC2(CC1)CC(=O)N(C/C=C/c1ccccc1)C2,1%,-0.13
O=c1c(NC2CCCCC2)nc2ccncc2n1Cc1ccccc1,4%,-0.43
Cc1cn(C)nc1C(=O)NC[C@H]1CN(c2nncs2)CCO1,-5%,0.64
C[C@@H](c1ccc(C(=O)NCCc2c[nH]c3ccccc23)o1)N1CCCCC1,18%,-2.31
C=C[C@](C)(CCOC)C(=O)NCCc1nccn1C,-13%,1.62
FC(F)(F)c1ccnc(N2CC[C@H](c3nnc(-c4ccncc4)o3)C2)n1,2%,-0.27
Fc1cccc(-c2cn[nH]c2C2CCN(Cc3ccccc3)CC2)c1,-10%,1.29
Cn1ncc(Cl)c1C(=O)NCc1nc(C(C)(C)C)no1,-9%,1.2
Cc1c[nH]c(=O)n1-c1cccc(NC(=O)c2ncoc2-c2ccccc2Cl)c1,-8%,1.51
CCc1nn(-c2cccc(C)c2)c(N2CCN(C)CC2)c1CN(CC)Cc1cccc(Cl)c1,-14%,1.98
Cc1n[nH]c(C)c1-c1ccc(-n2ccnc2)nn1,5%,-0.87
CS(=O)(=O)N1C[C@@H]2CCN(Cc3ccc(F)cc3)C[C@]2(CO)C1,-3%,0.48
COC[C@H]1CN(C(C)=O)CC12CCN(C(=O)NCc1ccccc1)CC2,-17%,1.99
Cc1nn(C)c2nc(NCCc3nc(C(C)C)no3)sc12,-4%,0.65
c1c(CN2CCc3[nH]nc(C4CCC4)c3C2)nn2c1CNCCC2,9%,-1.21
O=C(NCC1CCCCC1)[C@H]1CCCN(c2nnc3ccc(Cl)cn23)C1,-6%,0.61
O=C(COc1cccnc1)NC[C@H]1COCCO1,0%,0.04
Cc1cccc2c1cc(C(=O)NCc1nc(-c3cnccn3)n[nH]1)n2C,3%,-0.49
O=C(O)c1c(NC(=O)C2CCCCC2)sc2c1CCC2,-12%,1.68
O=C(Cc1ccc2c(c1)OCO2)N1CCN(C(=O)c2nc[nH]n2)CC1,-4%,0.78

SMILES,% Inhibition,Z score
Cc1cccc(-n2nc3nc(NCC4CC4)nc(-c4ccc(Cl)cc4)c3c2N)c1,-6%,0.64
Cc1ccc(O)c(CN(CCC(F)(F)F)C2CCC2)n1,4%,-0.68
O=C(NC1CC1)c1nn(-c2cccc(C(F)(F)F)c2)c(=O)n(Cc2ccc(F)cc2)c1=O,-10%,1.36
O=C1COc2ccc(-c3cc(-c4ccccc4)c4c(n3)-c3cc(Cl)ccc3OC4)cc2N1,-5%,0.57
CCc1ccccc1N(C(C)=O)c1nc(CN[C@H](c2ccccc2)c2cccs2)cs1,26%,-3.47
C[C@H]1Cc2cc(C(=O)NCCCOc3cccnc3)ccc2O1,-11%,1.74
Cn1cncc1CCC(=O)Nc1nc(-c2ccc3c(c2)OCO3)cs1,-19%,2.64
COc1cc2c(cc1OC)CN(C(=O)[C@@H]1C[C@@H](NCc3ccc(F)cc3F)CN1C/C=C/c1ccccc1)CC2,-13%,1.5
Cc1ccc(CC2CCN(c3nc(C(N)=O)cs3)CC2)cc1C,-21%,4.09
CCC(CC)C(=O)NCc1cn([C@H]2CCOC2=O)nn1,1%,-0.17
Cc1cc(=O)c(C(=O)NC[C@H](C)n2ccnc2)c(C)[nH]1,1%,-0.26
COc1ccc(C(=O)Nc2ccc(O)c(C)c2)cc1-c1ccccn1,-10%,0.98
CS(=O)(=O)Nc1nc2c(s1)C[C@@H](c1ccccc1)CC2,-8%,1.06
CC(=O)N[C@@H]1C[C@H](CC(C)C)O[C@H](c2cccc(C#N)c2)C1,2%,-0.34
CCCS(=O)(=O)N1CCc2c(C(=O)N(C)C)nc(C)n2CC1,1%,-0.16
CC(=O)N[C@H]1CCN(C(=O)c2cc(-c3ccc(O)cc3)n[nH]2)C1,-3%,0.53
O=C1NC(O)(C(F)(F)F)C(=O)N2CCCC12 (stereo not drawn),35%,-3.91
COC(=O)c1cc(C)nc2c1c(=O)n(CC(=O)N1CCCCC1)c(=O)n2-c1cccc(OC)c1,-10%,1.28
Oc1cccc(-c2ccc(-c3cn[nH]c3)cc2)n1,-4%,0.53
O=C(N[C@H]1CCc2ccccc21)c1ccc(CN2CCOCC2)cc1,-13%,2.39
CCCC(=O)N1CCC(c2nccs2)CC1,-7%,0.97

SMILES,% Inhibition,Z score
COc1ccc(CN2C[C@H]3CN(C(=O)C(C)C)C[C@@]3(CO)C2)cc1Cn1cccn1,-9%,1.22
CCOC(=O)N1CCN(C(=O)[C@H](CC(C)C)NC(=O)NCc2ccc(C)cc2)CC1,-5%,0.92
O=C(C1CCN(C2CCN(Cc3cc4ccccc4o3)CC2)CC1)N1CCOCC1,-20%,1.77
COc1ccc(N2CCN(Cn3c(-c4ccccc4)nsc3=S)CC2)cc1,-42%,4.92
O=C(CCCCC1C2NC(=O)NC2CS1(=O)=O)Nc1ccc2c(c1)CCC2 (stereo not drawn),-8%,1.3
CNC(=O)[C@@H]1CN(S(=O)(=O)CCCCC(F)(F)F)CCO1,-1%,0.2
COc1ccc(NC2CCN(CCC(F)(F)F)CC2)cn1,-9%,1.41
Cc1cc2c(cc1NS(C)(=O)=O)c1c(n2S(C)(=O)=O)CC(C)(C)CC1=O,3%,-0.44
Cc1cc(C#N)c(NCC[C@H]2CCCOC2)nc1C,-8%,1.09
Cn1nccc1CNC(=O)[C@]1(c2ccccc2)CCC(=O)NC1,-7%,0.93
C[C@@H](C(=O)Nc1ccc(F)c(Cl)c1)S(C)(=O)=O,2%,-0.23
O=C(CN1CCOC1=O)NC[C@H]1CC(Cc2ccc(F)cc2)=NO1,-10%,1.16
O=C(c1ccc2noc(-c3ccccc3)c2c1)N1CCC1,3%,-0.57
O=C(C1CCCCC1)N1CCc2cc(S(=O)(=O)N3CCOCC3)ccc21,-11%,1.52
N#Cc1ccc(C(=O)N[C@H]2CC=CC[C@@H]2C(N)=O)cc1,-11%,1.58
O=C(Cn1cc(Cl)cn1)N(C1CCCC1)[C@H]1CCS(=O)(=O)C1,-19%,1.63
Cc1ccc(-c2cc(C(=O)N3CCN(c4cccc(C)c4C)CC3)c(C)[nH]2)cc1C,-2%,0.26
Cc1nn(-c2nc3ccccc3s2)c(O)c1C(c1ccccc1Cl)c1c(C)nn(-c2nc3ccccc3s2)c1O,6%,-0.95
CNC(=O)c1sc(NC2CCOCC2)nc1C,-11%,2.16
Cc1ccc(C)c(OCC(=O)N(C[C@H](O)c2ccc(F)cc2)C2CC2)c1,-9%,1.88
CCn1c(C)nc2cc(NS(=O)(=O)c3ccccc3)cc(C(=O)NCc3cccc(OC)c3)c21,4%,-0.76

SMILES,% Inhibition,Z score
CO[C@H]1C[C@@H](C(=O)N2CCCc3c2ccc2[nH]cnc32)N(C)C1,-3%,0.62
CCCc1nc(CN2CC(n3cc(C)cn3)C2)no1,-16%,2.09
CCC1(CC)CCCN1C(=O)c1nccs1,-11%,0.94
COC1C2CC3CN(C(=O)Nc4ccnnc4C)C1C3C2 (stereo not drawn),-10%,1.58
COc1ccc(CC(=O)Nc2cnc(-c3ccc(C)cc3)nc2)cc1,-16%,1.42
CN(CC(=O)Nc1cccnc1)C1CCCCC1,-14%,1.95
O=C(COC(=O)c1c(F)cccc1F)NC(=O)NC1CCCC1,6%,-0.95
CN(C)c1ccc(C[C@@H]2C(=O)Nc3ccc(Br)cc32)cc1,-25%,2.21
Cc1nn(C)c2nc(N3CCN(c4cnccn4)CC3)sc12,-1%,0.27
Cc1c(O)cccc1C(=O)N1CCN(C(=O)CC(C)C)[C@@H]2CS(=O)(=O)C[C@@H]21,-12%,1.34
CCCn1ccnc1-c1cn(Cc2cc3ccccc3[nH]2)nn1,41%,-7.14
CCc1ccccc1C(=O)N[C@H](C(=O)OC)C(C)C,-14%,1.61
c1nc2c(c(Oc3ccc(-c4nnco4)cc3)n1)CCCC2,-13%,1.48
Cc1cccc(C(=O)N2CCCS2(=O)=O)n1,-8%,1.07
Cc1ccc(-n2c(=O)c3ccccc3n(CC(=O)NCc3cccnc3)c2=O)cc1C,-5%,0.98
CCC(=O)N(Cc1csc(COc2c(OC)cccc2OC)n1)C1CC1,-4%,0.72
CC1CCCCC1NC1=C(C(=O)N2CCOCC2)S(=O)(=O)c2ccccc21 (stereo not drawn),-4%,0.64
O=C1CN(C(=O)Cc2cc3ccccc3s2)CCN1CCO,1%,-0.15
CCNC(=O)N[C@H]1CCN(C2CCCCCC2)C1,1%,-0.09
CC(=O)NCc1ccc(-c2ccnc(C)c2)nc1,3%,-0.4
O=C1C(N2C(=O)[C@H]3CCCN3C2=O)CCN1c1ccccc1 (stereo partly drawn),1%,-0.08
